“And” between values parts separate entries of the source, which are not always exact repeats. Equal values may be shown once.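 All cell lines were grown in 96-well plates and treated with compound for 48 hours. GI50: concentration for 50% inhibition of growth. TGI denotes the concentration required for complete inhibition of growth.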 Bounds are passed on as bounds.

The subject of the assay is NCI-H322M lung. Put plainly: NCI tumour cell line growth inhibition, 48 h.
For the molecule `O=C(NS(=O)(=O)OCC(Cl)(Cl)Cl)SCCC(F)(F)C(F)(F)C(F)(F)C(F)(F)C(F)(F)C(F)(F)F`, the TGI was 37.3 µM.

`CC(=O)OC12c3ccccc3-c3ccccc3C1C1C(=O)N(C)C(=O)C12Cl` (stereo unspecified) yielded a TGI of more than 10 µM.

In turn, `COc1ccc2oc(-c3cccnc3)cc(=O)c2c1` displayed a TGI of more than 100 µM.

Turning to `CC(C)=CCc1cc(O)cc2c1OC(C=C(C)C)C1=C2C(=O)C2=C(NCCS2(=O)=O)C1=O` (stereo unspecified), the GI50 is 0.829 µM and the TGI was found to be 3.02 µM.

`C=CCCCCCCCCCCC1(O)C=CC2=[N+](CCCCCN=C(N)N)CCCN21` (stereo unspecified): the GI50 is 11.9 µM and the TGI was found to be 28.1 µM.

Regarding `COC(=O)[C@]1(C)CCCC2(C)C1CC[C@H]1C=C(C)[C@H]3CCC12C3` (stereo partly specified), the TGI is more than 100 µM.

`O=[N+]([O-])c1ccc(-n2nnc(C3=NCCN3)c2-c2ccc(Cl)cc2)cc1` registered a TGI of more than 100 µM.

Regarding `Ic1ccc(-n2nnnc2-c2cnoc2-c2ccccc2)cc1`, the GI50 was more than 50.4 µM and the TGI is more than 83.6 µM.

Regarding `O=C(O)CCN(CCC(=O)O)c1ccc(/C=C2\SC(=S)NC2=O)cc1`, the TGI was more than 100 µM.

Turning to `Cc1nc2cnc(N)c(C#Cc3cncc(C(=O)Nc4ccc(CN5CCN(C)CC5)c(C(F)(F)F)c4)c3)c2nc1C`, the GI50 was 0.322 µM and the TGI is 4.6 µM.

On to `CC(C)C1=C(Cc2ccccc2)C(=O)O/C1=C\c1cc(Cl)c(O)c(Cl)c1`, for which the TGI was 33.1 µM.

The molecule `CCOc1ccc2c(c1)[n+]([O-])c(-c1ccccc1Cl)c(N)[n+]2[O-]` had a TGI of more than 100 µM.

Molecule `CC(C)=CCc1c(O)ccc2ccc(=O)oc12` gave a TGI of more than 100 µM.

Regarding `O=C(c1cc(Cl)cc(Cl)c1)N1CCN(C(=O)c2cc(Cl)cc(Cl)c2)C1=S`, the TGI is 30.5 µM.

For the molecule `CCC1C2C=CC(CC2)N1S(=O)(=O)c1ccc(C)cc1` (stereo unspecified), the TGI was more than 100 µM.

Take `C[C@@H]1CCC2[C@@H](C)[C@@H](OCCO[C@H]3OC4O[C@@]5(C)CCC6[C@H](C)CCC([C@H]3C)[C@@]46OO5)OC3O[C@@]4(C)CCC1[C@]32OO4` (stereo partly specified): the TGI was more than 100 µM.

The molecule `C[C@H]1C2Cc3cc(N)ccc3[C@@]1(C)CCN2CCc1ccccc1` showed a TGI of more than 100 µM.

In turn, `CC(=O)O[C@H]1CCC2[C@@H]3CCC4=C(O)c5nocc5C[C@]4(C)C3CC[C@@]21C` (stereo partly specified) gave a TGI of more than 100 µM.

Consider `O=c1[nH]cc(COCCO)c(=O)[nH]1`, for which the TGI was more than 100 µM.

As for `CCO/C=N/NC(=O)CSc1nc2ccc(I)cc2c(=O)n1Cc1ccccc1`, the TGI is more than 100 µM.

Molecule `COc1ccc(C(OCC2OC(n3cc(C)c(=O)[nH]c3=O)CC2n2cc(Cn3cc(Br)c(=O)[nH]c3=O)nn2)(c2ccccc2)c2ccccc2)cc1` (stereo unspecified) gave a TGI of more than 100 µM.

As for `Cc1ccc(Cl)cc1Nc1nc(C(F)(F)F)ccc1C(=O)N1CCN(c2cccc(Cl)c2)CC1`, the GI50 was more than 100 µM and the TGI is more than 100 µM.

Regarding `CCOC(=O)C(=Cc1cccc(Cl)c1)C(=O)OCC`, the GI50 was 2.4 µM and the TGI was 7.66 µM.

Regarding `Nc1c(C(=O)Nc2cccc(Br)c2)sc2nc3c(cc12)C(=O)CCC3`, the GI50 is 0.461 µM and the TGI was more than 100 µM.

`CC(=O)Nc1ccc(-c2nc3ccccc3s2)cc1` yielded a TGI of more than 100 µM.

Turning to `CC[C@]1(Cc2ccc(OC)c(OC)c2)[C@@H]2C[C@@H](C3OCCO3)ON2O[C@H](OC2CCCC2(c2ccccc2)c2ccccc2)[C@@H]1OC(C)=O` (stereo partly specified), the TGI is more than 100 µM.

As for `Cc1cn2c(/C=C3\C(=O)Nc4ccc(O)cc43)c(-c3ccc(Cl)cc3)nc2s1`, the GI50 was 26.6 µM and the TGI is 94 µM.

Consider `Cn1cnc([N+](=O)[O-])c1S(=O)(=O)Oc1ccccc1`, for which the GI50 was more than 74.4 µM and the TGI is more than 100 µM.

`O=[N+]([O-])c1ccc(S(=O)(=O)N=Ic2ccccc2)cc1` yielded a TGI of more than 100 µM.

As for `O=C(c1c(F)ccc(NS(=O)(=O)N2CC[C@@H](F)C2)c1F)c1c[nH]c2ncc(-c3cnc(C4CC4)nc3)cc12`, the GI50 is 2.84 µM and 4.3 µM; the TGI is > 10 µM and 52.7 µM.

`COc1ccc(CN(Cc2ccc(OC)cc2)C(=O)CC2(O)C=CCC2)cc1` (stereo unspecified): the TGI was more than 100 µM.

On to `Cc1ccc(/C=C/c2c(C(=O)/C=C/c3ccc(C(F)(F)F)cc3)c(C)nc3ccccc23)cc1`, for which the GI50 is 1.48 µM and the TGI was determined as 2.81 µM.

`COC(=O)C1(OC(=O)Sc2ccccc2)CCN(C)CC1` showed a TGI of more than 100 µM.

In the case of `Cc1c(O)c(C)c2c(C)cn(C(=O)C(C)(C)C)c2c1C`, the TGI was determined as 35.4 µM.

The molecule `Cc1c(Cl)cccc1N1C(=O)C(Cl)=C(Cl)C1=O` yielded a TGI of more than 100 µM.

As to `O=C(Nc1cc(Cl)ccc1Cl)c1cc2cccc(Cl)c2oc1=O`, the TGI is more than 100 µM.

`CC1=C2CCCC2=C/C(=N/Nc2ccc([N+](=O)[O-])cc2[N+](=O)[O-])CC1` registered a TGI of more than 100 µM.

`CC(CC(=O)O)C(C(=O)O)C(=O)O` (stereo unspecified) yielded a TGI of more than 100 µM.

`COc1ccc(/C=N/n2c(-c3ccccc3)n[nH]c2=O)cc1` returned a TGI of more than 100 µM.

Consider `CCOc1ccc(N2C(=O)/C(=C/c3ccc(N(CCC#N)CCC#N)cc3)N=C2c2cc([N+](=O)[O-])ccc2Cl)cc1`, for which the TGI is more than 100 µM.

On to `CSc1ncnc2c1cnn2CCCCO`, for which the TGI was more than 100 µM.

With `CCc1nc2ccc(N=NN(C)C)cc2[nH]1`, the TGI was more than 100 µM.

As for `COc1ccc(/C(=N\NC(=O)C(N)=O)C(c2ccc(OC)cc2)C2(O)C(=O)Nc3c(Cl)cccc32)cc1` (stereo unspecified), the TGI was more than 100 µM.

The molecule `CC1(C)OC2C(O)CN3CCS[C@H]3C2O1` (stereo partly specified) returned a TGI of more than 100 µM.

`Cn1c(=O)c2c(no[n+]2[O-])c2ccccc21`: the TGI came out at 66.5 µM.

`CCCCn1c(C)c2c(c1C)C(=O)N(CC(O)CN1CCc3ccccc3C1)C2=O` (stereo unspecified) displayed a TGI of more than 100 µM.

The molecule `O=C1CC(C[C@H](O)C2CCCCC2O)CC(=O)N1Cc1ccccc1` (stereo partly specified) came in with a TGI of more than 100 µM.

As for `COc1cc2c(cc1O)C1C(O)C(O)C=C3CCN(C2)C31` (stereo unspecified), the TGI amounted to 15.6 µM.

`COc1cccc(/C=N/[N-]C(=O)c2ccncc2)c1[O-].[Cu+2].[OH3+]`: the GI50 is 26.3 µM and the TGI is more than 100 µM.

In turn, `O=C(O)c1cccnc1` came in with a TGI of more than 100 µM.

For `CC12CC(C#N)(C#N)C(C#N)(CO1)C(=N)O2` (stereo unspecified), the TGI is more than 100 µM.

In the case of `CCOC(=O)c1cc(C2(O)CCN(CC(C)CC)C2=O)c(-c2cc(C)no2)[nH]1` (stereo unspecified), the TGI was more than 100 µM.

In the case of `CCOc1ccc2nc(S/C(=C/C=C(C#N)C#N)c3ccc(C)cc3)sc2c1`, the GI50 is more than 100 µM and the TGI was more than 100 µM.

`O=C1c2ccccc2C2(O)c3cc4ccccc4cc3OC12O` (stereo unspecified) returned a TGI of more than 100 µM.

The molecule `S=c1[nH]n2c(COc3cccc(OCc4nnc5sc(=S)[nH]n45)c3)nnc2s1` came in with a TGI of more than 100 µM.

`Nc1nc2c(ncn2Cc2ccc(CO)cc2)c(=O)[nH]1`: the TGI is more than 100 µM.

`COc1c(OC)c(OC)c(C(=O)/C=C/c2ccccc2)c(OC)c1OC` registered a TGI of 20.9 µM.

For `Cc1ccc(-c2nc3ccc([N+](=O)[O-])cc3[nH]2)cc1`, the TGI was more than 100 µM.

Consider `O=c1cc(-c2ccccc2)[nH]c2c(S)cccc12`, for which the TGI was more than 100 µM.

For `COc1ccc(CCN=C2OCc3ccccc32)cc1OC`, the TGI is more than 100 µM.

Take `O=S(=O)(O)c1ccc(N=Nc2ccc(N=Nc3c(O)ccc4ccccc34)cc2)cc1`: the TGI was more than 100 µM.

In turn, `CCOC(=O)NC(=O)c1cn(CCOC(=O)NCCCCCCNC(=O)OCCn2cc(C(=O)NC(=O)OCC)c(=O)[nH]c2=O)c(=O)[nH]c1=O` came in with a TGI of more than 100 µM.

The molecule `COC(=O)CN(C)P(=O)(N1CC1)N1CC1` came in with a TGI of more than 100 µM.

Values taken from PubChem BioAssay (NCI).
